# The supplement of paper PMC4604168 (melanoma cell lines)
# This is one part of the list. Repeats are few or missing, and single values can be far off.
# Key:
# Experiment in all cases: cell count relative to DMSO control; melanoma cells; higher = more viable cells
# Conditions in all cases: library dose: low library concentration; 72 h
# WM115 = system: WM115
# WM1716 = system: WM1716
# WM1745 = system: WM1745
# WM3526 = system: WM3526
# WM3619 = system: WM3619
# WM451Lu = system: WM451Lu
# 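Note: cell number obtained by counting DAPI-stained nuclei in high-throughput microscope images with image analysis software, screen run in 1,536-well plates.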
SMILES,cell count (WM115) [%],cell count (WM1716) [%],cell count (WM1745) [%],cell count (WM3526) [%],cell count (WM3619) [%],cell count (WM451Lu) [%]
"COc1ccc(C2=N[C@@H](c3ccc(Cl)cc3)[C@@H](c3ccc(Cl)cc3)N2C(=O)N2CCNC(=O)C2)c(OC(C)C)c1 [Nutlin-3] + c1cc(-c2cnn3cc(-c4ccc(OCCN5CCCCC5)cc4)cnc23)ccn1 [Dorsomorphin] (first compound 0.1 µM, partner dose 0.4 µM)",80.3,103,93,86.4,88,105
"Cc1cc(Nc2cc(N3CCN(C)CC3)nc(/C=C/c3ccccc3)n2)n[nH]1 + Cn1c(Nc2ccc(C(F)(F)F)cc2)nc2cc(Oc3ccnc(-c4ncc(C(F)(F)F)[nH]4)c3)ccc21 [CHIR265] (first compound 0.04 µM, partner dose 0.08 µM)",50,77.4,79.4,57.9,72.9,96.1
"Cc1cn(-c2cc(NC(=O)c3ccc(C)c(Nc4nccc(-c5cccnc5)n4)c3)cc(C(F)(F)F)c2)cn1 [nilotinib] + Cc1ccc(NC(=O)c2cccc(N(C)C)c2)cc1NC(=O)c1ccc(O)cc1 [ZM336372] (first compound 0.2 µM, partner dose 2 µM)",112,106,91.6,110,76.6,134
"Cc1cn(-c2cc(NC(=O)c3ccc(C)c(Nc4nccc(-c5cccnc5)n4)c3)cc(C(F)(F)F)c2)cn1 [nilotinib] + CN(C)S(=O)(=O)c1ccc2c(c1)/C(=C/c1cc3c([nH]1)CCCC3)C(=O)N2 [SU6656] (first compound 0.2 µM, partner dose 0.4 µM)",81.2,120,92.9,101,105,111
"CC(C)C[C@H](NC(=O)[C@H](Cc1ccccc1)NC(=O)c1cnccn1)B(O)O [Bortezomib] + O=S(=O)(c1ccccc1)N(CC(F)(F)F)c1ccc(C(O)(C(F)(F)F)C(F)(F)F)cc1 [T0901317] (first compound 0.001 µM, partner dose 1.4 µM)",105,20.7,44.6,80.2,13.9,68.4
"Cc1cn(-c2cc(NC(=O)c3ccc(C)c(Nc4nccc(-c5cccnc5)n4)c3)cc(C(F)(F)F)c2)cn1 [nilotinib] + O=C(O)C(=O)Nc1sc2c(c1C(=O)O)CCNC2 [TCS401] (first compound 0.2 µM, partner dose 1.66667 µM)",114,104,87.1,93.8,93.7,101
"CC(C)C[C@H](NC(=O)[C@H](Cc1ccccc1)NC(=O)c1cnccn1)B(O)O [Bortezomib] + COc1ccc(Cl)c(Nc2nc3ccccc3nc2NS(=O)(=O)c2cccc(NC(=O)C(C)(C)N)c2)c1 [XL147] (first compound 0.001 µM, partner dose 0.8 µM)",90.8,35,64.9,91,24,84.2
"Cc1cc(Nc2cc(N3CCN(C)CC3)nc(/C=C/c3ccccc3)n2)n[nH]1 + CC(C)C[C@H](NC(=O)[C@H](Cc1ccccc1)NC(=O)c1cnccn1)B(O)O [Bortezomib] (first compound 0.04 µM, partner dose 0.001 µM)",96.9,69.9,79.9,99.7,54.6,91.1
"CC(C)C[C@H](NC(=O)[C@H](Cc1ccccc1)NC(=O)c1cnccn1)B(O)O [Bortezomib] + CO[C@H]1C[C@@H]2CC[C@@H](C)[C@@](O)(O2)C(=O)C(=O)N2CCCC[C@H]2C(=O)O[C@H]([C@H](C)C[C@@H]2CC[C@@H](OCCO)[C@H](OC)C2)CC(=O)[C@H](C)/C=C(\C)[C@@H](O)[C@@H](OC)C(=O)[C@H](C)C[C@H](C)/C=C/C=C/C=C/1C [everolimus] (first compound 0.001 µM, partner dose 0.02 µM)",68.1,25.2,44.3,65,36.8,86
"Cc1cc(Nc2cc(N3CCN(C)CC3)nc(/C=C/c3ccccc3)n2)n[nH]1 + Cn1cncc1[C@@](N)(c1ccc(Cl)cc1)c1ccc2c(c1)c(-c1cccc(Cl)c1)cc(=O)n2C [tipifarnib] (first compound 0.04 µM, partner dose 0.01 µM)",81.8,83.1,83.4,76.4,97,75.7
"Cc1cc(Nc2cc(N3CCN(C)CC3)nc(/C=C/c3ccccc3)n2)n[nH]1 + N#Cc1c(O)c2c(-c3ccc(-c4ccccc4O)cc3)csc2[nH]c1=O [A769662] (first compound 0.04 µM, partner dose 2 µM)",92.2,90.7,88.7,86.2,117,97.7
"Cc1cc(Nc2cc(N3CCN(C)CC3)nc(/C=C/c3ccccc3)n2)n[nH]1 + C=C(c1ccc(C(=O)O)cc1)c1cc2c(cc1C)C(C)(C)CCC2(C)C [Bexarotene] (first compound 0.04 µM, partner dose 2 µM)",91.4,94.7,84.8,95.6,108,109
"Cc1cc(Nc2cc(N3CCN(C)CC3)nc(/C=C/c3ccccc3)n2)n[nH]1 + CC1(C)NC(=O)N(c2ccc([N+](=O)[O-])c(C(F)(F)F)c2)C1=O [nilutamide] (first compound 0.04 µM, partner dose 1 µM)",86.3,100,80,91.1,99.7,79.4
"COc1ccc(C2=N[C@@H](c3ccc(Cl)cc3)[C@@H](c3ccc(Cl)cc3)N2C(=O)N2CCNC(=O)C2)c(OC(C)C)c1 [Nutlin-3] + CCN(CC)CCNC(=O)c1c(C)[nH]c(/C=C2\C(=O)Nc3ccc(F)cc32)c1C [sunitinib] (first compound 0.1 µM, partner dose 0.4 µM)",99.3,129,85.2,87.3,96.3,106
"CC(C)C[C@H](NC(=O)[C@H](Cc1ccccc1)NC(=O)c1cnccn1)B(O)O [Bortezomib] + COCC[n+]1c2c(n(Cc3cnccn3)c1C)C(=O)c1ccccc1C2=O [YM155] (first compound 0.001 µM, partner dose 0.0004 µM)",91.6,34.8,89.6,87.1,21.2,57.6
"CC(C)C[C@H](NC(=O)[C@H](Cc1ccccc1)NC(=O)c1cnccn1)B(O)O [Bortezomib] + COc1ccc2c(c1)CCC1C2CCC2(C)C(NCCCCCCN3C(=O)C=CC3=O)CCC12 [U73122] (first compound 0.001 µM, partner dose 0.4 µM)",105,23.8,60.5,90.6,18.5,84.1
"Cc1cn(-c2cc(NC(=O)c3ccc(C)c(Nc4nccc(-c5cccnc5)n4)c3)cc(C(F)(F)F)c2)cn1 [nilotinib] + COC(=O)c1sccc1S(=O)(=O)Nc1ccc(Nc2ccccc2)cc1OC [GSK0660] (first compound 0.2 µM, partner dose 1 µM)",97.7,85.2,91.3,94.1,93.6,133
"COc1ccc(C2=N[C@@H](c3ccc(Cl)cc3)[C@@H](c3ccc(Cl)cc3)N2C(=O)N2CCNC(=O)C2)c(OC(C)C)c1 [Nutlin-3] + NC1(c2ccc(-c3nc4ccn5c(=O)[nH]nc5c4cc3-c3ccccc3)cc2)CCC1 [MK2206] (first compound 0.1 µM, partner dose 0.4 µM)",81.9,84.9,89.6,76.9,88,83.5
"COc1ccc(C2=N[C@@H](c3ccc(Cl)cc3)[C@@H](c3ccc(Cl)cc3)N2C(=O)N2CCNC(=O)C2)c(OC(C)C)c1 [Nutlin-3] + Oc1nc(-c2ccc(C(F)(F)F)cc2)nc2c1CSCC2 [XAV939] (first compound 0.1 µM, partner dose 2 µM)",85.2,65.4,87.4,102,64.4,106
"COc1ccc(C2=N[C@@H](c3ccc(Cl)cc3)[C@@H](c3ccc(Cl)cc3)N2C(=O)N2CCNC(=O)C2)c(OC(C)C)c1 [Nutlin-3] + O=C(O)[C@@H]1[O][Sb](=[O])([O][Sb]2(=[O])[O][C@H]([C@H](O)CO)[C@H](O)[C@H](C(=O)O)[O]2)[O][C@H]([C@H](O)CO)[C@@H]1O [stibogluconate] (first compound 0.1 µM, partner dose 2 µM)",95,87.2,94.9,117,81.1,86.7
"COc1ccc(C2=N[C@@H](c3ccc(Cl)cc3)[C@@H](c3ccc(Cl)cc3)N2C(=O)N2CCNC(=O)C2)c(OC(C)C)c1 [Nutlin-3] + CC(C)CCN1c2nc(Nc3cc(F)c(O)c(F)c3)ncc2N(C)C(=O)C1C [BID1870] (first compound 0.1 µM, partner dose 0.2 µM)",90,103,97.3,103,90.1,79.5
"Cc1cn(-c2cc(NC(=O)c3ccc(C)c(Nc4nccc(-c5cccnc5)n4)c3)cc(C(F)(F)F)c2)cn1 [nilotinib] + Cn1cnc2c(F)c(Nc3ccc(Br)cc3Cl)c(C(=O)NOCCO)cc21 [selumetinib] (first compound 0.2 µM, partner dose 0.015 µM)",85.9,111,86,100,84.3,118
"Cc1cn(-c2cc(NC(=O)c3ccc(C)c(Nc4nccc(-c5cccnc5)n4)c3)cc(C(F)(F)F)c2)cn1 [nilotinib] + NC(=O)Nc1cc(-c2cccc(F)c2)sc1C(=O)N[C@H]1CCCNC1 [AZD7762] (first compound 0.2 µM, partner dose 0.02 µM)",88.6,94,87.2,76.9,39.8,91.7
